# Whole data set: some 4,500 sequences, median “median log2 fold change of GCK-ALFA target abundance (FLAG IP / Myc IP barcode read proportion)” near 0.078, cut for the lowest 2% near -0.6. The list shows a part of the results.
# B1: GBRAP_128_3257 (protein)
# chain: MNEEIVEKAEKFVEKLKNSNPEEQKKIAEEFAEYLISVSDEEAEQAIDVVESRLKELTAEQLEILADVLRKHLPKMSPEKANLAAGLLVDALNEAEEKEE
# B2: GBRAP_125_2981 (protein)
# chain: PTEEELEALRRLARALGLDEEEAEELAELARAHSLRGALYALLRALGEEEVAELVEQLTEEEVARVLAAVDAYLKAHPDATPEEVIALLRELLEAELAKR
# B3: GBRAP_125_2997 (protein)
# chain: SEEKLAEALALILRALGYSEDDIEEAVEIAKKHGIKQTLIAIALAEGAEELAELLEQLTEEEAAEIALKVAEELKENPELTKEEVLELMLELAKEALAKR
# B4: GBRAP_184_5286 (protein)
# chain: AVRHVEIVAETAEEAIAQVRAAAAEARAAGERLDLTLLLRDADIEGIKALLALLAELRAEGVIASATLGIERELTEEEIDEVLEAADAAGVRVVLAISDE
# B5: GBRAP_150_3886 (protein)
# chain: DLETALTIASSALDILEATIEDGPKLLEHALKLTKALVDEVKDFSEELQKLAKEALKKIEEAIKLVKAGGKPEEIKKLLEEAAKLLEELEKLLEKKIEEE
# B6: GBRAP_14_3835 (protein)
# chain: MELIREILEEAARRIAEELSELAGLDLEEVLERLREAVEEALKHYKETGNLEEAFDLYEKLVVETVEELLADKPEELQEEAKAIARVEVGEAILEYEEKK
# B7: GBRAP_78_6592 (protein)
# chain: AIEEAVDALLEATNEAMTLLAKEPSEFAQDILGELIDETTAIYEALEEENDKEKIKKEAEELKATLEKALKHADKFSPETVAAIKAALKEAEALIKLLDE
# B8: GBRAP_128_3545 (protein)
# chain: SLEEARALAREAMERIKASDVETAREITEELLEKMKTWSLEEVEAAVEELLERLPELSAEKLEAVADAIEEQRGKFSPEVQELLADLQVEALNLAEEQEE
# B9: GBRAP_52_6004 (protein)
# chain: MEERLRRLAREILERTLAGDWEGARALLREAAETLSLEELRLLAEKIAELIRERGPEDPERYVRLADLVAEVLEEAGVPEEEVLLITGIIEAGIAQAEAA
# B10: GBRAP_184_5020 (protein)
# chain: MVLEEVIRVENVEEARAKMAEVAERAAAQKADLILTVEIANPTREIVEAIMDELGRIMAEGKVSRLTVGIDAELSEELVDLAVEKADEAGVNLVVALSEE
# B11: GBRAP_160_4082 (protein)
# chain: SEAYEKLIKEIEEIFEEALEMMEDVTREEAVAIALVALGEVALLIEEEEELSEEDKEKLLKIVDEAEKEIRAAKDATVEEIKALLREHKERLVEEVKKLD
# B12: GBRAP_26_5499 (protein)
# chain: MEEALDKALERVHAALDELLSPELARLAKAEVDTEFEELEEEIEKNKNDMEKIKKAIEEMLEEILEALRLLGVPEETLEKLEKRFKEIAKELIEELEKLM
# B13: GBRAP_153_3952 (protein)
# chain: SAEREARIAEAVALARAAEAAGGDPALIAAAAALLATLDEEELEEVGERIRGLSPELIGRLVLTALTEAGLSAEGALALASKLDEEQELAVLDAIVEAAK
# B14: GBRAP_83_6978 (protein)
# chain: AEEIVVAAPADRIEEAVEIAIDLHKEEGYDVTLEILTTPEQLDKVLEAVERLIKEIKDIEIEVYIEGGTAEQAAALEARLKAIAAAAGANPKITVHLDEP
# B15: GBRAP_52_5947 (protein)
# chain: SLEEAKELLEKALEAVLAGKREEARKILKELVENFSLETIKEAAIELAKELADADDETLEAFVELLDLLRDELIEAGVPEDEALLVEGEAAAELAKERTK
# B16: GBRAP_52_6071 (protein)
# chain: MEEKIEELAEKITEAIEEGDLEEALELIEEAIKELSKEEIKKLLVLTAKLVAELSEEAHEKFVDLLTEAEDLLEKAGISEEDALVIVGDAEAALAKEVAK
# B17: GBRAP_166_4922 (protein)
# chain: SIEEKVKEARERLKKVIEEGKADPSLTKGQITVDMAYETAEMLKSEKDRETKLAIVREGLKLAKEEGLDPRRLATLTASLYGFSDEEREEIDKIVKEILA
# B18: GBRAP_52_6253 (protein)
# chain: MRARMRALAERALALALAGDEAALRALLEAFAATADEEEVRLWIAEVAELARAAPLEDADAVWRLAELAAEALEAAGKPEILVDDLEAAVAAALYEVEQR
# B19: GBRAP_52_6010 (protein)
# chain: MREELKKKLEEALELVKEGKEEEARKLVKELVESLNDEEIELLIELLAEMAKKAKPEDFDAVWKLAEIVAEEMEELGKDEELADLLLARVAAALYEAEQA
# Molecular target: GABARAP, O95166
# Sequence (O95166 whole entry, the tested form may be a part): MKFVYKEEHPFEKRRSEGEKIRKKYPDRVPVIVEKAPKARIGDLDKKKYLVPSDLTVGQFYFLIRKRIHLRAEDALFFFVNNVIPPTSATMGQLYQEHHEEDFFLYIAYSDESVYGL
# Assay: median log2 fold change of GCK-ALFA target abundance (FLAG IP / Myc IP barcode read proportion) (log2 ratio); each designed protein is fused to an ALFA-tag nanobody in HEK293 cells to bring the named protein to FLAG-tagged glucokinase (GCK); Myc marks an untargeted standard; higher = target protein stabilised (more abundant)
# Conditions: target protein: 3xFLAG-MCP-GCK-ALFA reporter; HEK293 landing pad (RPLP)
# How it was run: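 An ALFA-nanobody-fused binder library was recombined into HEK293 landing-pad cells and induced with 2 μg mL^−1 doxycycline. Cells were transfected with a plasmid expressing a FLAG-tagged target and a Myc-tagged standard. After 48 h, lysates underwent anti-FLAG and anti-Myc immunoprecipitation, and circular RNA barcodes were reverse transcribed, amplified and sequenced. Target abundance is the per-binder median log2 ratio of FLAG to Myc barcode read proportions. Barcodes needed ≥10^−7 proportion in both replicates, binders ≥3 barcodes per replicate, and a 10^−6 pseudocount was added; the two replicates were pooled.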
row,Binder,median log2 fold change
1,B1,0.216
2,B2,-0.142
3,B3,-0.0754
4,B4,0.0492
5,B5,0.00752
6,B6,-0.325
7,B7,0.0587
8,B8,0.103
9,B9,-0.375
10,B10,0.175
11,B11,-0.223
12,B12,0.18
13,B13,0.0975
14,B14,0.104
15,B15,0.0236
16,B16,-0.155
17,B17,0.213
18,B18,-0.0809
19,B19,0.0073
